Among all 150,000 compounds or so, about 180 (0.12%) were called active. This list was built around the results that the source calls inconclusive (neither active nor inactive); the mix of calls is not that of the screen. Calls follow the shape of the dose curve; as a rule, active = well fitted cell-killing curve with a large enough effect; inconclusive = small, poorly fitted or top-dose-only effect, or effect the other way; inactive = flat fitted curve, though single readings scatter. Potencies of inconclusive entries are doubtful fits and often do not repeat.
Assay: GF-AFC viability counterscreen for inhibitors of alpha-synuclein gene (SNCA) expression; also: nearly all actives have a fitted effect of over 30% in size;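 as to activity change, negative = cytotoxicity: 0% = DMSO-treated cells and -100% = medium-only wells without cells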
Details: HEK-293-SNCA-luc viability, GF-AFC fluorescence, 24 h; activity change, negative = cytotoxicity: at 57.1 µM (top of the series) unless noted
Method in brief: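 HEK-293-SNCA-luc cells (1500/well) plated 24 h, then exposed 24 h to a dilution series; GF-AFC added 30 min at 37C, fluorescence 405/540 nm; normalised to medium-only and DMSO wells, Hill fit.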
With `CCOC(=O)c1cc(C)n(CC2CCC(C(=O)Nc3ccc(Cl)cc3)CC2)c1C` (centres undefined) the Potency was inconclusive: 39.8 µM [cytotoxic, single point].
In the case of `O=C(O)CCc1nc2ccccc2[nH]1`, the Potency is reported as inconclusive: 1 µM [rising, full curve, poor fit].
With `COc1ccccc1Nc1ccnc(N2CCC(NC(=O)c3ccc(Cl)nc3)CC2)n1` the Potency was “inactive”.
For `COc1ccccc1-c1nc(C2CC(=O)N(C3CCCCC3)C2)no1` (centres undefined), the Potency was “inactive”.
For `OCc1ccc(-c2nn(Cc3ccccc3)c3ccccc23)o1`, the Potency was inconclusive: 3.83 µM [cytotoxic, partial curve, poor fit].
In the case of `O=C(COC(=O)CCCC1=NS(=O)(=O)c2ccccc2N1)Nc1ccc(Br)cc1`, the Potency is reported as inconclusive: 1.12 µM [rising, full curve].
For `Cn1nc(C2CCCC2)cc1NC(=O)c1ccc(C(F)(F)F)cc1`, the Potency was inconclusive: 5.62 µM [cytotoxic, partial curve, poor fit].
With `COc1cccc(CN2CCc3c(cc(C(=O)Nc4cc(OC)cc(OC)c4)n3C)C2)c1` the Potency was “inactive”.
For `N#Cc1ccc(C(=O)Nc2ccc3n(c2=O)C[C@H]2C[C@@H]3CN(C(=O)NC3CCCCC3)C2)cc1`, the Potency was inconclusive: 22.4 µM [cytotoxic, single point].
For `COCc1cc(C)nc2sc3c(c12)NC(c1ccc(O)cc1)N(c1ccc(OC)cc1)C3=O` (centres undefined), the Potency was inconclusive: 31.6 µM [rising, single point].
In the case of `CCNc1ncc2nc(-c3cc(F)cc(F)c3)c(=O)n(CCOC)c2n1`, the Potency is reported as inconclusive: 31.6 µM [rising, partial curve, poor fit].
With `COC(=O)c1cccc(Nc2c(-c3ccc(O)c(OC)c3)nc3nc[nH]n23)c1` the Potency was inconclusive: 28.2 µM [cytotoxic, single point].
In the case of `COc1ccc(CC(=O)N2CCCC(C(=O)N3CCC(c4ccccc4)CC3)C2)cc1` (centres undefined), the Potency is reported as “inactive”.
For `COc1ccc(-c2nc3cnc(N4CCNCC4)nc3n(C3CC3)c2=O)cc1`, the Potency was inconclusive: 17.8 µM [rising, partial curve, poor fit].
In the case of `O=C(c1ccc(Cl)cc1)N1CC2(CCCN2Cc2ccc(C(F)(F)F)cc2)Cc2ccccc21` (centres undefined), the Potency is reported as “inactive”.
In the case of `CC1CN(C(=O)CCC(=O)NCc2ccc(F)cc2)c2cc(Cl)ccc2O1` (centres undefined), the Potency is reported as “inactive”.
With `O=C(Nc1nc2ccc(F)cc2s1)c1nc(S(=O)(=O)Cc2ccccc2)ncc1Cl` the Potency was active: 31.6 µM.
With `COc1ccc(C(=O)N[C@@H]2CCC[C@@H]2C(=O)NCc2cccc(C)c2)cc1` the Potency was inconclusive: 15.8 µM [cytotoxic, partial curve, poor fit].
In the case of `CNC(=O)c1cccc(-c2cnc(Nc3ccc(F)c(Cl)c3)c3c2CCO3)c1`, the Potency is reported as inconclusive: 25.1 µM [cytotoxic, partial curve].
In the case of `O=C(c1ccc(-c2cncnc2)cc1)N1CCC(N[S+](=O)([O-])c2cccs2)CC1`, the activity change, negative = cytotoxicity is reported as inactive: 15.6% [at 12.5 µM].
For `CCCCOc1ccc(CNC(=O)CCCN2C(=O)CSc3c2c(C)nn3-c2ccccc2)cc1`, the Potency was inconclusive: 39.8 µM [cytotoxic, single point].
In the case of `CCOC(=O)C1CC1CN1CCC2(CC1)Cc1ccccc1CNC2=O` (centres undefined), the Potency is reported as “inactive”.
For `COc1ccccc1NC(=O)CN1C(=O)C2(SCC(=O)N2c2ccc(C)c(C)c2)c2ccccc21` (centres undefined), the Potency was inconclusive: 2.82 µM [cytotoxic, full curve].
For `COc1cc(C(=O)N2CCN(CCc3ccccn3)CC2)cc(OC)c1OC`, the Potency was inconclusive: 39.8 µM [cytotoxic, single point].
For `COc1ccc(NC(=O)CSCc2cnn(-c3ccccc3)c2-n2cccc2)cc1`, the Potency was inconclusive: 39.8 µM [cytotoxic, single point].
In the case of `O=C(c1cccc(Cl)c1)N1CCC(C(=O)N2CCC(N3Cc4cccn4C3=O)CC2)CC1`, the Potency is reported as “inactive”.
For `COc1ccccc1CC(=O)N1CCCc2ncc(C(=O)Nc3ccc4[nH]ccc4c3)cc21`, the Potency was inconclusive: 28.2 µM [cytotoxic, partial curve, poor fit].
In the case of `COCC(=O)NC1CCN(Cc2cccc(-c3cccs3)c2)CC1`, the activity change, negative = cytotoxicity is reported as inactive: 0.701% [at 12.5 µM].
With `O=C(CCn1cc(Cl)cn1)N1CCOC(c2ccc(Cl)cc2)C1` (centres undefined) the Potency was “inactive”.
In the case of `Cc1ccc(NC(=O)CN2C(=O)NC3(CCC(C)CC3)C2=O)cc1C` (centres undefined), the Potency is reported as “inactive”.
With `O=C(NC1CCCN(c2cc(-c3ccc(F)cc3)[nH]n2)C1)c1cccc(F)c1` (centres undefined) the Potency was inconclusive: 3.98 µM [cytotoxic, full curve, poor fit].
In the case of `CC1=C[C@@H](CNC(=O)CC(C)(C)CC(=O)O)[C@H](C(C)C)C[C@H]1Cc1nc2ncccc2[nH]1`, the Potency is reported as inconclusive: 28.2 µM [cytotoxic, partial curve, poor fit].
In the case of `COc1ccc(-c2cc(C(=O)NCc3ccc(F)cc3)c3c(-c4ccc(F)cc4)[nH]nc3n2)cc1OC`, the Potency is reported as inconclusive: 7.08 µM [cytotoxic, single point].
In the case of `O=C1[C@@H]2C[C@@H](CN2Cc2ccc(Cl)cc2)Oc2ccccc2N1Cc1ccccc1`, the Potency is reported as “inactive”.
In the case of `CC(=O)c1ccc(NC(=O)CSc2cn(CC(=O)N3CCCCCC3)c3ccccc23)cc1`, the Potency is reported as inconclusive: 31.6 µM [cytotoxic, partial curve, poor fit].
For `CCOC(=O)c1cccc(NC(=O)c2ccc3c(c2)N(CC)C2CCCCN2C3=O)c1` (centres undefined), the activity change, negative = cytotoxicity was inactive: 2.67% [at 12.5 µM].
With `O=C(c1nc2cccnc2n(Cc2ccccc2)c1=O)N1CCOCC1` the Potency was “inactive”.
For `CC(C)(O)c1cc2nc(-c3cnc(N)nc3)nc(N3CCOCC3)c2s1`, the Potency was inconclusive: 0.429 µM [cytotoxic, full curve, poor fit].
With `COc1cccc(Nc2ccc3c(n2)C(C)(C(=O)NC2CCC2)CN(C)C3)c1` (centres undefined) the Potency was “inactive”.
For `Cc1cc(C)cc(OCCCn2c(CCNC(=O)C3CCCCC3)nc3ccccc32)c1`, the Potency was inconclusive: 25.1 µM [cytotoxic, single point].
With `CNC1(C)C2CCC(C2)C1(C)C` (centres undefined) the activity change, negative = cytotoxicity was inconclusive: 85.7% [at 23.9 µM].
In the case of `CC(C)Oc1ccc(CN2CC(C(=O)NCc3ccncc3)C3(CCOCC3)C2)cc1` (centres undefined), the Potency is reported as inconclusive: 3.98 µM [cytotoxic, full curve, poor fit].
In the case of `Cc1cccn2c(=O)c3cc(C(=O)NCc4ccccc4)c(=N)n(CCOCCO)c3nc12`, the Potency is reported as inconclusive: 25.1 µM [rising, partial curve].
In the case of `CCOC(=O)CC1c2cc(OCC)c(OCC)cc2CCN1C(=O)Nc1cccc(Cl)c1` (centres undefined), the Potency is reported as inconclusive: 39.8 µM [cytotoxic, partial curve, poor fit].
With `Cc1cccc(N(C)C(=O)Cn2c(=O)n(-c3ccc(F)cc3)c(=O)c3c2cc(C)n3C)c1` the Potency was inconclusive: 8.91 µM [cytotoxic, full curve, poor fit].
In the case of `COCCn1c(=O)c(-c2cn(C)c3ccccc23)nc2cnc(OCc3ccccc3)nc21`, the Potency is reported as inconclusive: 11.2 µM [rising, partial curve].
In the case of `CCc1ccccc1NC(=O)CSc1nc(-c2ccccc2OC)nc2c1Cc1c(CO)cnc(C)c1O2`, the Potency is reported as inconclusive: 35.5 µM [cytotoxic, partial curve, poor fit].
In the case of `O=C1c2cnc(-c3ccc(Oc4ccccc4)cc3)nc2OCCN1CC1CC1`, the Potency is reported as inconclusive: 28.2 µM [cytotoxic, single point].
With `CN(Cc1ccco1)c1nc(-c2cccc(C#N)c2)nc2ccccc12` the Potency was inconclusive: 2 µM [cytotoxic, full curve, poor fit].
In the case of `COc1ccc2nc(C[C@@H]3C[C@@H](C(C)C)[C@H](CNC(=O)C4CCCCC4)C=C3C)[nH]c2c1`, the Potency is reported as inconclusive: 28.2 µM [cytotoxic, partial curve, poor fit].
With `CC(C)CC(=O)N1CCC(Oc2nccnc2N(C)C)C1` (centres undefined) the Potency was “inactive”.
In the case of `O=C(NC1CCCCC1)N1Cc2[nH]cnc2C[C@H]1c1nc(-c2cccc([N+](=O)[O-])c2)no1`, the Potency is reported as “inactive”.
For `Cc1ccc(NC(=O)Nc2cc(C(F)(F)F)ccc2F)cc1Nc1ccc2c(c1)NC(=O)/C2=C\c1ccc[nH]1`, the Potency was inconclusive: 23.8 µM [cytotoxic, partial curve, poor fit].
In the case of `Fc1ccc2[nH]ccc2c1-c1nc(N2CCOCC2)c2sc(CN3CCN(CC4CC4)CC3)cc2n1`, the Potency is reported as inconclusive: 29.9 µM [cytotoxic, single point].
For `COc1ccc(-c2cc3ccc(O)c(CN4CCC(C)CC4)c3oc2=O)cc1OC`, the Potency was inconclusive: 15.8 µM [rising, partial curve].
With `CCc1noc(-c2cccn3c(CNC(=O)c4cc(F)ccc4F)nnc23)n1` the Potency was “inactive”.
With `CN(Cc1ccccc1)C(=O)c1nc(-c2ccc(Cl)cc2)n2c1CCCCC2` the Potency was inconclusive: 14.1 µM [cytotoxic, partial curve, poor fit].
With `COc1ccc(Nc2c3c(nc4ccc(NC(=O)c5ccc(F)cc5)cc24)CCCC3)cc1OC` the Potency was inconclusive: 20 µM [cytotoxic, partial curve, poor fit].
In the case of `CC(=O)N(C1CCOCC1)C1CCN(S(=O)(=O)c2ccc(Cl)c(C)c2)CC1`, the Potency is reported as “inactive”.
With `CC(C)C(=O)N1CCC(CCOc2ccccc2F)C1` (centres undefined) the Potency was “inactive”.
For `O=c1c(-c2ccccc2)nc2cnc(N3CCOCC3)nc2n1Cc1ccc(F)cc1`, the Potency was inconclusive: 25.1 µM [rising, partial curve].
With `COc1ccccc1-c1[nH]nc2ncc(-c3cccnc3OC)nc12` the Potency was “inactive”.
For `O=C(c1ccccn1)C1CCCN(C(=O)c2cnc(-c3cccnc3)nc2)C1` (centres undefined), the Potency was “inactive”.
For `C[C@@H](Oc1ccc2[nH]nc(C=Cc3cnn(CCO)c3)c2c1)c1c(Cl)cncc1Cl`, the Potency was inconclusive: 24.1 µM [cytotoxic, partial curve].
Potency is read from the fitted curve at half-maximal effect; tags tell the direction and shape of the fitted curve.
